From article PMC6919601, “Identification of Plasmodium dipeptidyl aminopeptidase allosteric inhibitors by high throughput screening” (PLoS ONE, 2019)
Values joined by “and” are separate entries in the source; they are usually repeats but may differ in a detail not shown here. Equal entries are not always repeated. The whole screen tested about 110,000 compounds, of which about 230 (0.21%) showed an effect of 50% or more. This is one part of the list.

molecular target: DPAP1 (Plasmodium falciparum, UniProt Q8IIJ9); experiment: primary screen, percent inhibition; read by cleavage of a fluorogenic dipeptide substrate; higher = more effect of the substance; parameters: species or system P. falciparum D10 trophozoite lysates; single well
Sequence (Q8IIJ9 whole entry, looked up): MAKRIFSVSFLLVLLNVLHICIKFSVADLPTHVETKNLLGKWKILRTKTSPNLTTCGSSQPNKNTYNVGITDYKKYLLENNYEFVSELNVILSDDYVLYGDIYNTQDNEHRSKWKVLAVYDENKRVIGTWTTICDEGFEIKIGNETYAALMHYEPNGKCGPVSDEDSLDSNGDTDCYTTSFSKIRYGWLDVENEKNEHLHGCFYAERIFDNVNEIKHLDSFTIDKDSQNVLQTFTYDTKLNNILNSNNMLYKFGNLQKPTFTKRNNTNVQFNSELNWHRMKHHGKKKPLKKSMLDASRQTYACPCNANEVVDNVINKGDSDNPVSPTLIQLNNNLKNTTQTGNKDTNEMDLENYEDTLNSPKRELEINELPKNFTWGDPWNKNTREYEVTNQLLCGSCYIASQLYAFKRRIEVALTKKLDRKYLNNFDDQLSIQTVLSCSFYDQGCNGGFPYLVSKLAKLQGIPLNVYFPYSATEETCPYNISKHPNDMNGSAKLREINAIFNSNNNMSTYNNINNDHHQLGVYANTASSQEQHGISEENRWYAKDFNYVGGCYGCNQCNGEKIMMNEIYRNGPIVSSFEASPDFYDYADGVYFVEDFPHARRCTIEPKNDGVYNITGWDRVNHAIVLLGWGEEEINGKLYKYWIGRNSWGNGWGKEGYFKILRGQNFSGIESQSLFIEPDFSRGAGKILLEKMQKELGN
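Further: 30 min substrate incubation versus DMSO and 10 µM JCP410 controls.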

| SMILES | % Inhibition @ 10 uM |
| --- | --- |
| O=C1NC(=S)NC(=O)C1=C/C=C/c1ccccc1 | -4.31% |
| COc1ccc(/N=c2\sc(C)c(-c3ccc(C)cc3)n2CCO)cc1 | 1.02% |
| CC(C)(C)OC(=O)N[C@@H](Cc1cc(Cl)c(O)c(Cl)c1)C(=O)NC1(C#N)CC1 | -1.41% |
| Cc1cc(C)n(Cc2cc(C)c(Cn3nc(C)cc3C)cc2C)n1 | 9.21% |
| CCN(CC)S(=O)(=O)c1ccc(-c2csc(Nc3ccc(Br)cc3)n2)cc1 | -4.21% |
| CC(C)OCCCNC(=O)CNC(=O)c1cccs1 | 0.387% |
| Cc1nn(CCC(=O)NCc2cccc(Cl)c2)c(=O)c2nn(-c3ccccc3)c(C)c12 | -1.03% |
| COc1cc(/C=C2/NC(=S)NC2=O)ccc1OCc1ccc([N+](=O)[O-])cc1 | -1.15% |
| Cc1cc(C)c(NC(=O)C2CCCN2CCO)c(C)c1 (stereo not drawn) | 0.716% and 1.57% |
| CC1C/C(=C/c2ccco2)C(=O)/C(=C/c2ccco2)C1 (stereo not drawn) | -0.503% |
| COC(=O)c1ccc2c(c1)C(=O)/C(=C/c1cccc(OC)c1OC)O2 | 1.89% |
| O=C(O)c1cnn2c1NC(c1ccc(Br)cc1)CC2C(F)(F)F (stereo not drawn) | -1.88% |
| CC(C)CC(=O)C1=C(O)C(=O)N(Cc2ccccc2)C1c1ccccc1F (stereo not drawn) | -3.95% |
| CC1(C)CC(O)(C2(O)CC(C)(C)NC(C)(C)C2)CC(C)(C)N1 | -2.42% |
| COc1ccc(CNc2ncc3c(n2)CC(c2ccccc2)CC3=O)cc1 (stereo not drawn) | 0.561% |
| CCOc1cc(C2c3c(-c4ccccc4O)n[nH]c3C(=O)N2CCO)ccc1OCc1ccccc1 (stereo not drawn) | -4.95% |
| O=[N+]([O-])c1ccc(N2CCOCC2)cc1Sc1cccc2cccnc12 | 3.61% |
| CCOC1(C(F)(F)F)NC(=O)N(Cc2ccc(OC)cc2)C1=O (stereo not drawn) | -2.72% |
| Oc1ccc(CN2CCc3ccccc3C2)cc1 | -3.56% |
| CN(C)CC(C)(C)CNC1CCN(C)CC1 | 2.94% |
| CC(C)CCNC(=O)CCn1nc(-c2ccccc2)ccc1=O | -3.58% |

| SMILES | % Inhibition @ 10 uM |
| --- | --- |
| Cn1c(SCC(=O)c2ccc(Br)cc2)nc2sc3c(c2c1=O)C(C(=O)O)CC3 (stereo not drawn) | 3.72% |
| CCOC(=O)c1c(C)[nH]c(NC(=O)N2CCN(C(=O)c3ccco3)CC2)c1C | 4.18% |
| CCOC(=O)c1c(C)n(-c2ccc(C)cc2)c2ccc(OCC(O)CNC(CO)(CO)CO)cc12 (stereo not drawn) | 3.06% |
| CCOC(=O)c1cc2c(=O)n3ccccc3nc2n(CCCOC)c1=N | -9.1% |
| CN1CCN(CCCc2ccccc2)CC1 | -2.34% |
| CCCNC(=O)CN1C(=O)c2ccccc2Sc2ncccc21 | -12.9% |
| Cc1oc2ccc(O)c(CN3CC4(C)CC3CC(C)(C)C4)c2c1C(=O)NCc1ccccc1 (stereo not drawn) | 0.486% |
| COCCNC(=O)CNC(=S)N(Cc1ccc(F)cc1)C1CCCCC1 | 4.47% |
| CCCC(=O)N(c1ccc2oc(C)c(C(C)=O)c2c1)S(=O)(=O)c1ccc(F)cc1 | -7.83% |
| Cc1cc(C)cc(NC(=O)Cc2ccccc2)c1 | -0.856% |
| Cc1nnc(S)n1Cc1ccccc1 | -3.04% |
| COC(=O)c1ccc(C2C3=C(O)CC(c4ccccc4OC)CC3=NC(C)=C2C(=O)OC(C)C)cc1 (stereo not drawn) | 2.25% |
| Cc1ccc2nc3c(cc(C(=O)NC4CCCC4)c(=N)n3CCCn3ccnc3)c(=O)n2c1 | 1.52% |
| CCc1ccc2oc(C(=O)NC3CCS(=O)(=O)C3)cc(=O)c2c1 (stereo not drawn) | 1.9% |
| COc1cccc(CN2CCN(C(=O)C(c3ccccc3)c3ccccc3)CC2)c1 | -14.7% |
| CCOc1ccc(N2CC(C(=O)Nc3ccccc3C(C)C)CC2=O)cc1 (stereo not drawn) | 0.583% |
| CCn1c(=N)n(CCOc2ccc(OC)cc2)c2ccccc21 | 0.528% |
| CCOC(=O)c1ccc(NS(=O)(=O)c2ccc(-c3ccccc3)cc2)cc1 | -2.7% |
| Cn1c(NC(=O)c2cc(-c3ccc(Br)cc3)nc3ccccc23)cc(=O)n(C)c1=O | -1.36% |
| O=S(=O)(c1ccc2c(c1)OCCO2)N1CCCCC1 | 3.83% |
| Cc1cc(=O)n(Cc2ccccc2F)c2c1c(C)nn2-c1cccc(F)c1 | 2.48% |

| SMILES | % Inhibition @ 10 uM |
| --- | --- |
| COC(=O)c1cccc2[nH]ncc12 | -1.75% |
| N#Cc1c(N2C(=O)CC(c3ccccc3F)C3=C2CCCC3=O)sc2c1CCCC2 (stereo not drawn) | -3.34% |
| CCOCC(=O)Nc1cccc2ccccc12 | -4.15% |
| COc1cc(-c2nnc3n(Cc4ccccc4Cl)c(=O)c4ccccc4n23)ccc1O | -1.72% |
| COc1ccccc1-c1cc(C(=O)N2CCN(Cc3ccccc3)CC2)[nH]n1 | -1.3% |
| c1ccc2oc(-c3nn4c(Cn5cnc6ccccc65)nnc4s3)cc2c1 | 4.47% |
| O=S(=O)(c1ccc(-c2csc(Nc3ccc(Cl)cc3)n2)cc1)N1CCOCC1 | -1.28% |
| N#CCc1nc(-c2ccc([N+](=O)[O-])cc2)cs1 | -6.82% |
| COc1ccc(C2C(C(=O)c3ccccc3)=C(O)C(=O)N2c2nc3ccccc3s2)cc1 (stereo not drawn) | -3.75% |
| CC(CNC(=O)Cn1ncn2nc(-c3cccs3)cc2c1=O)c1ccccc1 (stereo not drawn) | -2.85% |
| Oc1nncn2c1cc1sccc12 | 48.7% |
| COc1cccc(CNCc2cccc(Br)c2)c1OC | -4.16% |
| CCOC(=O)C(Cc1ccc(O)cc1)NC(C)=O (stereo not drawn) | -1.77% |
| O=C(NCCNC(=O)C1c2ccccc2Oc2ccccc21)C1c2ccccc2Oc2ccccc21 | -2.64% |
| COc1c(Cl)cc(/C=C2\SC(N)=NC2=O)cc1Cl | 2.26% |
| CC(=O)/C=C/c1oc2ccccc2c1-c1ccc(C)o1 | 0.147% |
| Cc1cc(=O)cc(C)n1-c1ccccc1O | 7.82% |
| Cc1cccc(C)c1-n1nnnc1C1(Nc2ccc(F)c(Cl)c2)CCCCC1 | -3.98% |
| CS(=O)(=O)N1CCC(C(=O)Nc2cccc(C(F)(F)F)c2)CC1 | -0.992% |
| Cc1cc(Cl)cc(Cl)c1OCC(=O)Nc1cccnc1 | 1.37% |
| Cc1cc(C)c2c(n1)nn1c(C)c(CCC(=O)NCc3ccc4c(c3)OCO4)c(C)nc21 | -4.24% |
